According to PubChem BioAssay AID1671193 (National Center for Advancing Translational Sciences (NCATS), 2021):
In all, about 150,000 compounds went through this assay and about 180 (0.12%) were called active. Inconclusive means that the source gave no clear call. Such entries were picked first, then a sample of the others. The call rests on the fitted dose curve; in most records, active means well fitted cell-killing curve with a large enough effect; inconclusive means small, poorly fitted or top-dose-only effect, or effect the other way; inactive means flat fitted curve, though single readings scatter. A potency beside an inconclusive call is a rough fit, not a confirmed value.

Experiment: GF-AFC viability counterscreen for inhibitors of alpha-synuclein gene (SNCA) expression; further: nearly all actives have a fitted effect of over 30% in size
Details: HEK-293-SNCA-luc viability, GF-AFC fluorescence, 24 h; activity change, negative = cytotoxicity: at 57.1 µM (top of the series) unless noted
Source text: Assay Submitter (PI): Daniel R. Scoles Ph.D.
Department of Neurology, University of Utah, Salt Lake City, Utah
Accumulation of alpha-synuclein is a main underlying pathological feature of Parkinson's disease (PD) and alpha-synucleinopathies, for which lowering expression of the alpha-synuclein gene (SNCA) is a potential therapeutic avenue. Using a cell-based luciferase reporter of SNCA expression we performed a quantitative high throughput screen (qHTS) of 155,885 compounds in dose response. The screening assay was generated using genome editing to insert the luciferase gene downstream and in frame of the SNCA gene in HEK-293 cells (1). A viability counterscreen using GF-AFC was used to eliminate cytotoxic and false positive compounds. After in silico analysis (clustering, removal of frequent hitter nuisance chemotypes), inhibitor compounds from the primary screen were selected for follow up and re-tested at 11-doses in the SNCA-luc cells (luciferase and GF-AFC confirmation), and in CMV-luc expressing cell line to flag general transcriptional repressors.
Described herein are the results of the GF-AFC viability counterscreen for SNCA inhibitors; inactivity (no decrease in fluorescence signal, not cytotoxic) is the desired output for this assay.
1. Dansithong, W., Paul, S., Scoles, D. R., Pulst, S. M., and Huynh, D. P. (2015) Generation of SNCA Cell Models Using Zinc Finger Nuclease (ZFN) Technology for Efficient High-Throughput Drug Screening. PLoS ONE 10, e0136930.
SEQUENCE No. (e.g., 1, 2, 3, etc.); […] (e.g., Cells, Incubation, Reagent, etc.); VALUE; DESCRIPTION
1; Cells; 4 uL; Dispense 1500 HEK-293-SNCA-luc cells/well into Greiner 1536-well white / solid bottom tissue culture treated plate. The plate was covered with metal lids with gas-exchange holes.
2; Incubate; 24 hours; Incubate at 37C, 5% CO2, 95% RH.
3; Compounds; 23 nL; Compounds and controls were transferred via a Kalypsys Pin Tool (Wako USA) equipped with a 1536-slotted pin array. The plate was covered with metal lids with gas-exchange holes.
4; Incubate; 24 hours; Incubate at 37C, 5% CO2, 95% RH.
5; Dispense; 1 uL; Dispense Gly-Phe-7-amino-4-trifluoromethylcoumarin (GF-AFC, prepared at 125 uM in PBS) was added. The plate was covered with metal lids with gas-exchange holes.
6; Incubate; 30 min; Incubate at 37C, 5% CO2.
7; Detector; Fluorescence; Measure fluorescence with ViewLux microplate reader (PerkinElmer) equipped with 405/10 excitation and 540/25 emission filters.
8; Dispense; 3 uL; Dispense ONE-Glo ([…]) lucifase detection reagent was added to each well. Plates were covered with metal lids with gas-exchange holes.
9; Incubate; 15 min; Incubate at room temperature.
10; Detector; Luminescence; Measure luminescence with ViewLux microplate reader (PerkinElmer) equipped with clear filters.
NOTES (numbers refer to sequence above)
1; HEK-293-SNCA-luc were cultured and suspended in phenol-red free DMEM (4.5 g/L glucose, 25 mM HEPES, cat #21063 (Thermo)).
3; Compounds were added to the assay plate in an 11-point intra plate dose response, 1:3 titration in DMSO with a final concentration range of […]. Vehicle-only plates, with DMSO being pin-transferred to every well, were inserted at the beginning of screening runs to confirm expected assay performance. Activity was normalized to wells containing medium only (-100% activity, full inhibition) and SNCA-luc cells treated with DMSO vehicle control (0% activity), contained on the same plate as test samples.
10; Signals were analyzed, and dose-response curves were fit using the Hill equation. Compounds in curve classes -1.1, -1.2, -2.1, -2.2 in the SNCA-luc assay were considered active. Compounds were eliminated from further consideration if also active (curve class -1.1, -1.2, -1.3, -1.4, -2.1, -2.2, -2.3, -2.4) in the GF-AFC cytotoxicity assay.
Potency means the concentration at half of the fitted maximal effect; tags describe the fitted curve by direction and shape.

Structure (SMILES)	Potency	activity change, negative = cytotoxicity
CCCCN(C)C(=O)CN1C(=O)c2cccnc2Oc2ccc(Cl)cc21	inconclusive: 7.08 µM [cytotoxic, partial curve, poor fit]	–
COc1cccc(N2C(=O)NC(=NC3CCCCC3)C23CCN(Cc2ccccc2)C3)c1 (stereo not given)	inconclusive: 3.98 µM [cytotoxic, partial curve, poor fit]	–
CC(C)N(CC1CC1)C(=O)CC1COc2ccc(C(=O)N(C)C)cc2N1C (stereo not given)	–	inactive: 10.9%
O=C(C[C@@H]1CCNC[C@@H]1Cc1cc(-c2ccc(F)cc2)on1)Nc1nccs1	–	inactive: -8.3% [at 87.6 µM]
O=C(NC1CCCCCC1)C1CCN(C(=O)c2ncn3c2COC(c2ccccc2)C3)CC1 (stereo not given)	–	inactive: -6.18%
CC(=O)c1ccc(NC(=O)N[C@H]2CO[C@H]3[C@@H]2OC[C@@H]3Nc2nccc(-c3ccco3)n2)cc1	–	inactive: -8.88%
CCn1nccc1C(=O)N1CC(Oc2ccc(-c3nc(-c4ccccc4)no3)cc2)C1	inconclusive: 15.8 µM [cytotoxic, partial curve, poor fit]	–
O=C(c1cc(S(=O)(=O)N2CCCC2)c[nH]1)N1CCN(c2cccc(Cl)c2)CC1	inconclusive: 7.94 µM [rising, single point]	–
CCS(=O)(=O)N1CCC2(CC1)c1[nH]c3ccccc3c1CCN2C	–	inactive: -5.17% [at 12.5 µM]
Cc1nn2c(c1-c1ccccc1C(C)C)N(CCC(C)C)CCC2	inconclusive: 3.16 µM [cytotoxic, full curve, poor fit]	–
COc1ccc(OCC2(C)COc3ccc(C(=O)Nc4ccc(OC)nc4)cc3N2)cc1 (stereo not given)	inconclusive: 22.4 µM [cytotoxic, partial curve, poor fit]	–
Cn1c(=O)cc(N2CCCC(N)C2)n(Cc2cc(F)ccc2C#N)c1=O (stereo not given)	inconclusive: 21.2 µM [rising, single point]	–
CC(=O)c1cccc(NC(=O)Cn2c(=O)n(-c3cccc(C)c3)c(=O)c3c2cc(C)n3C)c1	inconclusive: 1.12 µM [cytotoxic, full curve]	–
O=C(c1cccc(OC2CN(Cc3ccc(F)cc3Cl)C2)c1)N1CCOCC1	inconclusive: 25.1 µM [cytotoxic, single point]	–
Cc1cc(-c2cnc3n[nH]c(-c4ccc5c(c4)OCO5)c3n2)ccn1	–	inactive: 2.84% [at 87.6 µM]
O=C(NCc1cccc(Cl)c1)c1ccc2nc(-c3cccnc3)oc2c1	–	inactive: 5.24%
COc1cc(C2c3c(-c4ccccc4O)n[nH]c3C(=O)N2Cc2ccncc2)cc(OC)c1OC (stereo not given)	inconclusive: 3.98 µM [cytotoxic, single point]	–
CN(Cc1cccnc1)Cc1nc(C2(O)CCN(Cc3ccccc3F)CC2)cs1	–	inactive: -2.17% [at 87.6 µM]
CCCCN1C(C(=O)c2ccccc2)=C(OC(=O)CC)c2ccccc2S1(=O)=O	inconclusive: 12.6 µM [cytotoxic, partial curve, poor fit]	–
CN(C)C(=O)N1CCCC(C(=O)N2CCC3(CC2)CC(=O)Nc2ccccc2O3)C1 (stereo not given)	–	inactive: 4.72%
O=C(NC1CCN(c2cc(C(F)(F)F)ncn2)CC1)c1ccccc1	inconclusive: 3.55 µM [cytotoxic, single point]	–
Cc1ccccc1CN1C(=O)C(O)(c2c[nH]c3ccccc23)c2cc(Cl)ccc21 (stereo not given)	inconclusive: 39.8 µM [cytotoxic, single point]	–
CC1CCN(S(=O)(=O)c2ccc3c(c2)N(CC(=O)N(C)Cc2ccccc2)C(=O)CO3)CC1	inconclusive: 39.8 µM [cytotoxic, single point]	–
CCN(CC)c1cc(NC2CCCCC2)c2c3c(onc13)-c1ccccc1C2=O	inconclusive: 25.1 µM [cytotoxic, partial curve, poor fit]	–
CCCCN1C(=O)c2ccccc2C(C(=O)NCCC(=O)OC)C12CCCCC2 (stereo not given)	inconclusive: 7.08 µM [cytotoxic, partial curve, poor fit]	–
COc1ncc2nc(-c3cccs3)c(=O)n(C)c2n1	inconclusive: 25.1 µM [rising, partial curve]	–
CCCCN(CC)CCCNC(=O)c1ccc2c(c1)N(Cc1ccc(C)cc1)C(=O)c1ccccc1S2	inconclusive: 39.8 µM [cytotoxic, single point]	–
COc1ccccc1C(=O)NC1CCN(c2ccnc3ccnn23)C1 (stereo not given)	inconclusive: 56.2 µM [cytotoxic, single point]	–
Cc1nnc(N2CCCC(C(=O)Nc3cc(F)ccc3F)C2)c2nn(-c3ccccc3)c(C)c12 (stereo not given)	inconclusive: 2.24 µM [cytotoxic, full curve]	–
Cc1nn(-c2ccc(C(F)(F)F)cc2)c(C)c1[C@@H]1C=C[C@@H](NS(=O)(=O)c2ccccc2)C1	–	inactive: -12.4%
